Reference: the supplement of paper PMC11383711
Some of the results follow. Binding of human antibodies (heavy:light variable regions, tested as scFv in one mRNA-display pool) to influenza hemagglutinin, with or without the stem antibody CR9114 bound first. Score = (mean enrichment − median) / interquartile range of that screen; higher = more enriched, 0 = typical non-binder. Active = above the paper's cut-off per screen: stems 28; unblocked H1 Solomon Islands 5, H1 Michigan 3, H3 5, H5 19, H7 2.85, both B 5; blocked 9, 7, H5 10, H7 10, B Phuket 10, B Lee 11.5. Scores are scaled within each screen and are no affinities; replicates correlate at about 0.6 to 0.9, and antibodies rare in the pool are noisier.

B1: AG13-3B01 (protein)
chain 1: VQLVESGGGLVKPGGSLRLSCAASGFTFSDYYMTWIRQAPGKGLEWVSYIDSWSTYTDYPDSVKGRFTVSRDNAKNSLYLQMNSLRADDTAVYFCARDRGDCSRTTCSFDSWGQGTLVTVSS
chain 2: EIVMTQSPATLSVSPGERATLSCRASQSVSSYLAWYQQKPGQAPRLLIYGASTRATGIPARFSGSGSGTEFTLTISSLQSEDFGIYYCQQYSDWPLTFGGGTKVEIK
B2: AG11-2B01 (protein)
chain 1: VQLQESGPGLVRPSETLSLTCSLSGGSFSEATDYWGWVRQAPGKGLEWIGSMSPSGITYISPSLTSRVTMSVDTSKKQFSLRLSFVVAADAAMYYCIKDRDIVSRGGFDLWGQGTLVTVSS
chain 2: DIQMTQSPSSLSASVGDAVTITCRASESISIFLNWYQHKPGKAPKLLIYLTSTLQSGVPSRFSGSGSGTDFTLTISGLQPEDFATYYCQQSYSHLPYTFGQGTKVEIK
B3: AG8-2B02 (protein)
chain 1: VQLVESGGGVVQPGRSLRLSCVASGFDSNEYGMHWVRQAPGKGLEWVGVIWFDGTTKYYADSVKGRFTVSRDNSKNTVYLEMNSLRVEDTAVYYCAREHLPYYYDVGIYYYYGMNVWGQGTTVTVSS
chain 2: DIVMTQSPDSLAVSLGERATIKCKSSQSVLYSSYNKYYLAWYQKKPGQPPKLLLYWASTRESGVPDRFSGSGSGTDFTLTISSLQAEDVAVYYCQQYYSIPLTFGGGTKVEIK
B4: R95-1F02 (protein)
chain 1: EVQLLESGGGLVQPGGSLRLSCAASGFTFSSCAMTWVRRAPGKGLEWVSAISAGGGSTWYADSVKGRFTISRDNSKNTLYLQMNGLRAEDTAVYYCAKDLLHWYFDLWGRGTLVTVSS
chain 2: EIVLTQSPATLSLSPGEGATLSCRASQSVSSYLAWYQQKPGQAPRLLIYDASNRATGIPARFSGSGSGTDFTLTISSLEPEDFAVYYCQQRRNWPLTFGGGTKVEIK
B5: W85-2G05 (protein)
chain 1: LVQPQESGPGLVKPSETLSLTCSVSGDSMYDYYWSWIRQPPGKGLEWIGCIHYSGSTNYNPSLKSRVTISVDTSKNQFSLKLSSVTAADTALYYCATGRSSNSGWYPYFYYGLDVWGQGTTVTVSS
chain 2: QSALTQPPSASGTPGQRVTISCSGSSSNIGENYVYWYQLFPGTAPKLVIYRSDQRPSGVPDRFSGSKSGTSASLVISGLRSEDEADFYCATWDDSLSGSWVFGGGTKLTV
B6: D1-H1-17-H3-14 (protein)
chain 1: QVQLQESGPGLVKPSESLSLTCSVSGGSVSSNLHYWSWIRQLPGKGLEWIGYISYTGSTKYNPSLNGRVTLSIDASKNQFSLELSSVTAADTAVYYCARDFFEKLIADDLNAFDIWGQGTMVTVSG
chain 2: DIRVTQSPSSLSASVGDRVTITCRASQSISRSLNWYQQRPGKAPKFLIYAASNLQSGVPSRFSGGGSGTDFTLTISSLQPEDFATYYCQETYSRTFGQGTKADIK
B7: K77-2D08 (protein)
chain 1: EVQLVESGGGVVQPGGSLRLSCAASGFSFSSHDMHWVRQAPGKGLEWVAFIRYDGSNEYYADSAEGRFAVSRDNSKNTLSLQLNSLRSDDTAVYYCANAADEWGGGLQHDYWGPGTLVIVSS
chain 2: QSALTQPASVSGSPGQSITISCTGGSFDVGGYNYISWYQQHPGKAPRLIIYGVTKRPSGVSTRFSASKSGATASLTISGLQAEDEAEYHCSSYTASTTWVFGGGTKLTV
B8: C1-3A03 (protein)
chain 1: QLQLQESGPGLVKPSETLSLTCTVDGGSISSSSYYWDWIRQPPGKGLEWIGSIYYSGETYHNPSLKTRVTTSVDTSKNQFSLRLSSVTAADTAVYYCARRCGGYQYYYGMDVWGQGTTVTV
chain 2: EIVMTQSPATLSVSPGERATLSCRVSQSVIRDLAWYQQKPGQAPRLLIYGASTRATGIPARFSGSGSGTEFTLTISSVHSEDFAVYYCQQYNNWAPITFGQGTRLEIK
B9: 2-12C (protein)
chain 1: EVQLVQSGAEVKKPGESLKISCKGSGNGFTTYWIGWVRQVPGKGLEWMGIIYPDDSDTRYSPSFQGQVSISADKSISTAFLQWSSLKASDTAMYFCARLGDVETAMVGQDAFHIWGQGTMVTVSS
chain 2: EIVLTQSPGTLSLSPGDRATLSCRASQSVSSSFLAWYQQKPGQAPRLLMYGASRRATGIPDRFSGSGSGTDFTLTISRLEPEDFAVYYCQQYDSSPFTFGGGTKVEIK
B10: R95-1D02 (protein)
chain 1: QVQLQESGPGLVKPSETLSLTCTVSGDSVSDNFWTWIRQPPGKALEWIGYMYYSGSIKYNPSLKSRVTMSLDTSKNQFSLELTSVTAADTAVYYCARATTWGAPEFDYWGQGTLVTVSS
chain 2: DIQMTQSPSSLSASVGDTVTITCRASQSINFYLNWYQQKPGRAPNLLISSASILQSGVPSRFSGSGSGTGFTLTISSLQPEDFATYFCQQSYSSPYTFGQGTKLETK
B11: 039-10-4G01 (protein)
chain 1: QVQLVQSGAEVKKPGASVKVSCKASGYTFSTYYIHWVRQAPGQGPEWMGIINPNGGTVAYARKFQGRVTMTRDTSTSTVYMDLRSLSSEDTAVYYCARDGREVPATTRKDYYYYYYMDIWGRGTTVTVSS
chain 2: DIVMTQSPDSLAVSLGERATINCKSSQSVFYSSNNKDDLAWYQQKPGQPPKLLIYWASTRGSGVPDRFSGSGSGTDFTLTISSLQAEDVAVYYCQQYYTTPPTFGGGTKVEIK
B12: S8V1-146-Ig (protein)
chain 1: SGAEVKKPGASVKVSCKASGYKFTNYYVHWVRQAPGQGLEWMGIINPREWLGIMNPRAGKTVFAQKFQARVSVTADTSTSTVSMELNSLGYEDTAVYFCARGHDILTDYPHLHWLDSWGQGTLVTVSS
chain 2: SITPGESASISCSSAQSLLRRDGYNYLDWYLRKAGQPPQLLIYLGSTRASGVPDRFSGSGSGTNFTLKISRAEAEDVGVYYCMQALQMPLTFGGGTQVEI
B13: 01.l.01 (protein)
chain 1: EVQLVESGGGLVQPGRSLRLSCAASGFTFHDYAMHWVRQVPGKGLEWVSSISWNSYRIGYADSVKGRFTISRDNAKNSLYLQMNSLRAEDTALYYCAKDPQGELIGGRFDPWGQGTLVTVSS
chain 2: DIQMTQSPSSLSASVGDRVTITCRASQSITTYLNWYQQKPGKAPKLLIHTASNLQSGVPSRFSGSGSGTDFTLTISSLQPEDFATYYCQQSYSTRFTFGPGTKVDIK

How the values were obtained:
Test in all cases: mRNA display binding score; higher = more enriched on the antigen
[1] = target: Influenza A H1N1 A/Michigan/45/2015 hemagglutinin ectodomain
Method: (§1)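 A pool of natively paired antibodies, displayed as scFv on mRNA, was selected once on antigen-coated beads and sequenced before and after; two replicates.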

[2] = target: Influenza A H1N1 A/Solomon Islands/3/2006 hemagglutinin ectodomain
Method: as §1

[3] = target: Influenza A H3N2 A/Singapore/INFIMH-16-0019/2016 hemagglutinin ectodomain; details: antigen blocked with: nothing
Method: as §1

[4] = target: Influenza A H5N1 A/Qinghai/1A/2005 hemagglutinin ectodomain
Method: as §1

[5] = target: Influenza A H7N9 A/Shanghai/2/2013 hemagglutinin ectodomain
Method: as §1

[6] = target: Influenza B/Lee/1940 hemagglutinin ectodomain
Method: as §1

[7] = target: Influenza B/Phuket/3073/2013 hemagglutinin ectodomain
Method: as §1

[8] = antigen blocked with: 2 µM CR9114 IgG

Binder	mRNA display binding score [1, 8]	mRNA display binding score ([1]; antigen blocked with: nothing)	mRNA display binding score [2, 8]	mRNA display binding score ([2]; antigen blocked with: nothing)	mRNA display binding score [3]	mRNA display binding score [4, 8]	mRNA display binding score ([4]; antigen blocked with: nothing)	mRNA display binding score [5, 8]	mRNA display binding score ([5]; antigen blocked with: nothing)	mRNA display binding score [6, 8]	mRNA display binding score ([6]; antigen blocked with: nothing)	mRNA display binding score [7, 8]	mRNA display binding score ([7]; antigen blocked with: nothing)
B1	inactive: 4.77	inactive: 1.79	inactive: 3.65	active: 7.33	inactive: 2.11	inactive: 1.56	inactive: 8.42	inactive: 5.88	inactive: 1.69	inactive: 1.48	active: 6.92	active: 15.1	active: 30
B2	inactive: 1.52	inactive: 1.31	inactive: 0.889	inactive: 0.135	inactive: 0.931	inactive: 7.55	inactive: 15.8	inactive: 2.03	inactive: 1.75	inactive: 0.766	inactive: 0.338	active: 40.6	active: 41.7
B3	inactive: 1.25	inactive: 0.32	inactive: 0.609	inactive: 3.27	inactive: 0.756	inactive: -0.0037	inactive: 1.3	inactive: -0.763	inactive: 0.875	inactive: -0.842	inactive: 3.21	inactive: 0.677	inactive: 2.67
B4	inactive: 3.94	inactive: 0.32	inactive: 2.99	inactive: 2.1	inactive: 0.371	inactive: 3.16	inactive: 0.662	inactive: 2.75	inactive: 0.465	inactive: 1.48	inactive: 2.11	inactive: 5.88	inactive: 1.72
B5	inactive: 1.77	inactive: 0.922	inactive: 1.08	inactive: 4.99	inactive: 1.34	inactive: -0.0996	inactive: 2.08	inactive: -0.313	inactive: 0.875	inactive: -0.532	inactive: 4.73	inactive: 1.09	inactive: 3.96
B6	inactive: 1.94	inactive: 0.489	inactive: 1.11	inactive: 4.99	active: 22.1	inactive: 0.0128	inactive: 1.45	inactive: -0.278	inactive: 0.465	inactive: -0.286	inactive: 3.63	inactive: 1.24	inactive: 3.01
B7	inactive: 3.92	inactive: 1.79	inactive: 2.71	active: 7.33	inactive: 2.11	inactive: 2.51	inactive: 3.35	inactive: 1.24	inactive: 2.83	inactive: 1.16	active: 6.92	inactive: 2.86	active: 5.86
B8	inactive: -0.157	inactive: -0.158	inactive: -0.597	inactive: 1.16	inactive: -0.231	inactive: -0.0603	inactive: -0.236	inactive: -0.841	inactive: -0.714	inactive: -0.679	inactive: 0.479	inactive: -0.458	inactive: 0.309
B9	active: 80.7	active: 3.93	inactive: -0.267	inactive: -0.279	inactive: -0.499	inactive: 0.301	inactive: 0.0673	inactive: -0.476	inactive: 0.106	inactive: -0.91	inactive: -0.227	inactive: -0.358	inactive: -0.221
B10	inactive: 2.32	inactive: 0.884	inactive: 1.52	inactive: 4.75	inactive: 1.23	inactive: 0.215	inactive: 2.17	inactive: 0.105	inactive: 0.842	inactive: 2.39	inactive: 4.64	inactive: 1.55	inactive: 3.92
B11	inactive: 0.0816	inactive: 0.374	inactive: -0.384	inactive: 1.96	inactive: -0.253	inactive: -0.102	inactive: -0.000986	inactive: -0.000668	inactive: 0.641	inactive: -1.12	inactive: 0.417	inactive: -0.266	inactive: 0.391
B12	inactive: 1.54	inactive: -0.0561	inactive: 0.91	inactive: 3.47	inactive: 0.0465	inactive: 1.37	inactive: 0.19	inactive: 0.523	inactive: 1.42	inactive: -0.198	inactive: 1.24	inactive: 0.912	inactive: 2.24
B13	inactive: 0.0532	inactive: -0.53	inactive: -0.397	inactive: 0.644	inactive: -0.114	inactive: 0.452	inactive: -0.0742	inactive: 0.195	inactive: -0.394	inactive: -0.874	inactive: 0.787	inactive: -0.119	inactive: 0.572
